Laboratory results taken from paper PMC4336329 (PLoS ONE, 2015).
The whole screen tested about 310,000 compounds, of which about 14,000 (4.5%) showed an effect of 50% or more. The effect is printed as a negative number. The list shows a part of the results.

Target: human ether-à-go-go-related gene (hERG) potassium channel (human, UniProt Q12809)
Test: primary screen, population patch clamp on CHO cells stably expressing hERG
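Note: peak tail current of the secondary pulse compared with the same well before compound.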

human ether-à-go-go-related gene (hERG) potassium channel, sequence (Q12809 whole entry, looked up): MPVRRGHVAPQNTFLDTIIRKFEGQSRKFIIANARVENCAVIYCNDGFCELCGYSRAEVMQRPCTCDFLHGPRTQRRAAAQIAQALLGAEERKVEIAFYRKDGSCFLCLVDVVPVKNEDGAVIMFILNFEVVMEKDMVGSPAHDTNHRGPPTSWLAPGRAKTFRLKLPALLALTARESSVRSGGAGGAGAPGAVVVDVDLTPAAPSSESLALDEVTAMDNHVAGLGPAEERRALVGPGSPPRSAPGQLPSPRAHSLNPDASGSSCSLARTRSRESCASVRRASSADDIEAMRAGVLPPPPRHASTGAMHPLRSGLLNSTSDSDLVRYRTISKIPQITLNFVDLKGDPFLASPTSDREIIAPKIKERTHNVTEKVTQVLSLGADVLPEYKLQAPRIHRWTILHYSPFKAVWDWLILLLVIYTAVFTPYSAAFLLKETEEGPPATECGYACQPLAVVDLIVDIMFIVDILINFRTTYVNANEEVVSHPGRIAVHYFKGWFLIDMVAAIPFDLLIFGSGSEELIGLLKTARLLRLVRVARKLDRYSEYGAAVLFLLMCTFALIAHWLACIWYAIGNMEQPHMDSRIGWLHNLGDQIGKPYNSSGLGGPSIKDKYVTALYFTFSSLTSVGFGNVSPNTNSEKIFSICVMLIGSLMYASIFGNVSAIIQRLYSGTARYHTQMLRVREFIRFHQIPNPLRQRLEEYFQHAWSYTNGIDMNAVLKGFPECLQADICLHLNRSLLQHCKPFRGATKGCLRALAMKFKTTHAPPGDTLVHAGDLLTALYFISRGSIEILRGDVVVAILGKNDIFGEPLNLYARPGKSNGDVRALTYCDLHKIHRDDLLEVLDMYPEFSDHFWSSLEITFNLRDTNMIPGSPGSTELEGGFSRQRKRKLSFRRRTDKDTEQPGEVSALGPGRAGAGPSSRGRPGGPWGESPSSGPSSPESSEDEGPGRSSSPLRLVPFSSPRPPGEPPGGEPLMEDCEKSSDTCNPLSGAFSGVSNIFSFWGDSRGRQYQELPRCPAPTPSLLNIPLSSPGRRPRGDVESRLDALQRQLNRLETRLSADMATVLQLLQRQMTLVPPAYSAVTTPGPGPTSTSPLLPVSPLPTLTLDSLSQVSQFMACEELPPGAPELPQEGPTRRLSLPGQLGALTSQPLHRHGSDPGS

SMILES	hERG current change (%, negative = inhibition) at 10uM [%]
CC(C)(C)C(=O)COC(=O)c1ccc2c(c1)C(=O)N(Cc1ccco1)C2=O	-8.27
Cc1ccc(OCCN2CCNCC2)c([N+](=O)[O-])c1.O=C(O)C(=O)O	-5.84
O=C(NCCCNc1ccc(C(F)(F)F)cc1[N+](=O)[O-])c1cc(F)c(F)cc1Cl	-15.7
COc1cc(NC(=O)c2cccs2)c(C(=O)OCC(=O)NC(=O)NCc2ccccc2)cc1OC	-5.74
COc1ccc(CCNC(=O)C/C(C)=N/NC(=O)Cc2cccc3ccccc23)cc1OC	3.71
O=C(Nc1ccccc1C(=O)N1CCCCCC1)c1ccc(Cl)cc1	25.2
Clc1ccc(CNC2CCN(Cc3ccccc3)CC2)cc1	-72.7
CCn1nnc(-c2ccccc2NS(=O)(=O)c2ccc(C(=O)OC)cc2)n1	-2.42
C/C(=N/Nc1ncc(C(F)(F)F)cc1Cl)c1ccncc1	-6.36
NNc1nc2c(F)cccc2s1	-18.4
CC(=O)C[C@H]1c2cc(C(F)(F)F)ccc2S(=O)(=O)N1Cc1ccccc1	-22.3
CCN(CC)S(=O)(=O)c1ccc(OCC(=O)NC2CCS(=O)(=O)C2)c([N+](=O)[O-])c1 (stereo not drawn)	13.6
O=C(Oc1ccc2c(=O)c(Cl)coc2c1)c1ccncc1	4.28
CC(=O)Nc1ccc2c3c(cccc13)C(=O)N(c1ccccc1)C2=O	18.9
CC1(C)CC(=O)C(C(c2cc([N+](=O)[O-])ccc2Cl)C2C(=O)CC(C)(C)CC2=O)C(=O)C1	-1.87
O=S(=O)(c1ccccc1)N(CC1CO1)c1ccccc1 (stereo not drawn)	-0.159
C[C@H](NC(=O)c1ccco1)C(=O)Nc1ccc(C#N)cc1	3
Cc1nnsc1-c1nnc(SCC(=O)c2ccc(F)cc2)n1C1CC1	3.13
Cc1cccc(N(C)C(=O)COc2cc(=O)n(C)c3ccccc23)c1	-12.7
C=CCn1c(SCC(=O)Nc2cc3oc4ccccc4c3cc2OC)nnc1-c1cnccn1	-7.06
O=C(CSc1n[nH]c(-c2ccccc2F)n1)Nc1cc(F)ccc1F	-10.8
COC(=O)c1cc(OC)c(OC)cc1NC(=O)Nc1ccccc1F	11.8
CCOC(=O)C1=C(COC(=O)COc2ccccc2OCC)NC(=O)NC1C (stereo not drawn)	8.51

SMILES	hERG current change (%, negative = inhibition) at 10uM [%]
Nc1cc(N)c(OCC(F)(F)F)cc1OCC(F)(F)F	18
Cc1c(C)n2c(SCC(=O)NC3CCCCC3)nnc2[nH]c1=O	-8.13
CC(=O)Nc1ccc(NC(=O)CSc2ccc(-c3ccc(-n4ccnc4)cc3)nn2)cc1	12.5
COc1ccc(CCNC(=O)CN2CCN(c3cccc(C(F)(F)F)c3)CC2)cc1	-46.3
COC1CCCN(Cc2cn(C)nc2-c2ccc(Oc3ccccc3)cc2)C1 (stereo not drawn)	-40.7
COCc1cc(C)nc2sc(C(=O)Nc3cccc(OC)c3)c(N)c12	4.78
CS(=O)(=O)N(CC(=O)NCc1ccc2c(c1)OCO2)c1ccccc1	6.97
CN(C1CCCC1)C1CCN(C(=O)CNC(=O)/C=C/c2ccc(F)cc2)CC1	-62.6
CCNS(=O)(=O)c1ccc(NC(=O)CC(C)c2ccccc2)cc1 (stereo not drawn)	-2.45
N#CC1=C(S)N(c2ccc(F)cc2)C(c2ccco2)NC1=O (stereo not drawn)	30.3
CCCc1cc(=O)oc2c(C)c(OCC(=O)N3CCC(C(N)=O)CC3)ccc12	9.66
COc1ccc(/C=C/C(=O)N2CCN(c3ccccn3)CC2)c(OC)c1OC	-11.6
Cc1cccc(NC(=O)CSc2nnc(CNC(=O)c3cccs3)o2)c1C	-4.83
Cc1cc(C)c2c(=O)[nH]n(C3CC(C)N(C)CC3C)c2n1 (stereo not drawn)	4.5
CC(C)n1c(SCC(=O)Nc2ccc(N3CCOCC3)cc2)nnc1-c1ccco1	9.21
COc1ccc(-c2nn(CCC(=O)O)cc2CCC(=O)O)cc1	22.1
O=C(OCCN1CCOCC1)c1cccnc1	-25.7
COc1ccc(NC(=S)NC(=O)c2cc3ccccc3o2)c(OC)c1	28.8
COc1ccc(-c2c(C)nn3c(N)c(-c4ccccc4)cnc23)cc1OC	7.46
CCOC(=O)C1(CCOC)CCN(Cc2cccc(OCc3ccccc3)c2)CC1	-42.4
O=C(N/N=C/C(Br)=C\c1ccccc1)c1ccco1	-10.4
CCOc1ccc(OCC)c(S(=O)(=O)NNC(=O)c2c(C)nc3ccccn23)c1	-24.2
